Substitutions are numbered along the chain they refer to; changes in the protein carry UniProt numbers. The list shows a part of the results.
T1: RBFOX1 RRM (Homo sapiens, UniProt Q9NWB1 109-208)
T1 sequence: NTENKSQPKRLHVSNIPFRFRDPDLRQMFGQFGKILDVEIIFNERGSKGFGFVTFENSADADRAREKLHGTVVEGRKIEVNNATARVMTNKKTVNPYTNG

B1: GAAUCUU (DNA:RNA)
RNA: GGGAGACCGGAAUUCAGAUUGUCCGAAUCUUUUAAAUCCCGUCGUAGCCACCA
DNA 1: CAATCTGAATTCCGGTCTCCC
DNA 2: TGGTGGCTACGACGGGATT
B2: ACCCAUC (DNA:RNA)
RNA: B1 RNA with G25A, A26C, A27C, U28C, C29A, U31C
DNA 1: CAATCTGAATTCCGGTCTCCC
DNA 2: TGGTGGCTACGACGGGATT
B3: UCAGAUC (DNA:RNA)
RNA: B1 RNA with G25U, A26C, U28G, C29A, U31C
DNA 1: CAATCTGAATTCCGGTCTCCC
DNA 2: TGGTGGCTACGACGGGATT
B4: GGGGGAG (DNA:RNA)
RNA: B1 RNA with A26G, A27G, U28G, C29G, U30A, U31G
DNA 1: CAATCTGAATTCCGGTCTCCC
DNA 2: TGGTGGCTACGACGGGATT
B5: AAUUAAU (DNA:RNA)
RNA: B1 RNA with G25A, A27U, C29A, U30A
DNA 1: CAATCTGAATTCCGGTCTCCC
DNA 2: TGGTGGCTACGACGGGATT
B6: GUUCUUC (DNA:RNA)
RNA: B1 RNA with A26U, A27U, U28C, C29U, U31C
DNA 1: CAATCTGAATTCCGGTCTCCC
DNA 2: TGGTGGCTACGACGGGATT
B7: ACGGUUU (DNA:RNA)
RNA: B1 RNA with G25A, A26C, A27G, U28G, C29U
DNA 1: CAATCTGAATTCCGGTCTCCC
DNA 2: TGGTGGCTACGACGGGATT
B8: AAUAUAA (DNA:RNA)
RNA: B1 RNA with G25A, A27U, U28A, C29U, U30A, U31A
DNA 1: CAATCTGAATTCCGGTCTCCC
DNA 2: TGGTGGCTACGACGGGATT
B9: UUCCGUC (DNA:RNA)
RNA: B1 RNA with G25U, A26U, A27C, U28C, C29G, U31C
DNA 1: CAATCTGAATTCCGGTCTCCC
DNA 2: TGGTGGCTACGACGGGATT
B10: AGCAAAA (DNA:RNA)
RNA: GGGAGACCGGAAUUCAGAUUGUCCAGCAAAAUUAAAUCCCGUCGUAGCCACCA
DNA 1: CAATCTGAATTCCGGTCTCCC
DNA 2: TGGTGGCTACGACGGGATT
B11: CACCAUC (DNA:RNA)
RNA: B10 RNA with A25C, G26A, A28C, A30U, A31C
DNA 1: CAATCTGAATTCCGGTCTCCC
DNA 2: TGGTGGCTACGACGGGATT
B12: UAGUCGC (DNA:RNA)
RNA: B1 RNA with G25U, A27G, U30G, U31C
DNA 1: CAATCTGAATTCCGGTCTCCC
DNA 2: TGGTGGCTACGACGGGATT
B13: UUAUGUA (DNA:RNA)
RNA: B1 RNA with G25U, A26U, C29G, U31A
DNA 1: CAATCTGAATTCCGGTCTCCC
DNA 2: TGGTGGCTACGACGGGATT
B14: CCUAACU (DNA:RNA)
RNA: B10 RNA with A25C, G26C, C27U, A30C, A31U
DNA 1: CAATCTGAATTCCGGTCTCCC
DNA 2: TGGTGGCTACGACGGGATT
B15: ACCGCUA (DNA:RNA)
RNA: B10 RNA with G26C, A28G, A29C, A30U
DNA 1: CAATCTGAATTCCGGTCTCCC
DNA 2: TGGTGGCTACGACGGGATT
B16: ACGAUUG (DNA:RNA)
RNA: B10 RNA with G26C, C27G, A29U, A30U, A31G
DNA 1: CAATCTGAATTCCGGTCTCCC
DNA 2: TGGTGGCTACGACGGGATT
B17: CGAUUAG (DNA:RNA)
RNA: B10 RNA with A25C, C27A, A28U, A29U, A31G
DNA 1: CAATCTGAATTCCGGTCTCCC
DNA 2: TGGTGGCTACGACGGGATT
B18: GGUGAUG (DNA:RNA)
RNA: B10 RNA with A25G, C27U, A28G, A30U, A31G
DNA 1: CAATCTGAATTCCGGTCTCCC
DNA 2: TGGTGGCTACGACGGGATT
B19: GUGAAAU (DNA:RNA)
RNA: B10 RNA with A25G, G26U, C27G, A31U
DNA 1: CAATCTGAATTCCGGTCTCCC
DNA 2: TGGTGGCTACGACGGGATT
B20: AAGCCCU (DNA:RNA)
RNA: B1 RNA with G25A, A27G, U28C, U30C
DNA 1: CAATCTGAATTCCGGTCTCCC
DNA 2: TGGTGGCTACGACGGGATT
B21: UCGGGAG (DNA:RNA)
RNA: B10 RNA with A25U, G26C, C27G, A28G, A29G, A31G
DNA 1: CAATCTGAATTCCGGTCTCCC
DNA 2: TGGTGGCTACGACGGGATT
B22: GUGUAAA (DNA:RNA)
RNA: B10 RNA with A25G, G26U, C27G, A28U
DNA 1: CAATCTGAATTCCGGTCTCCC
DNA 2: TGGTGGCTACGACGGGATT
B23: UAAGUCA (DNA:RNA)
RNA: B1 RNA with G25U, U28G, C29U, U30C, U31A
DNA 1: CAATCTGAATTCCGGTCTCCC
DNA 2: TGGTGGCTACGACGGGATT
B24: GAUUUAA (DNA:RNA)
RNA: B1 RNA with A27U, C29U, U30A, U31A
DNA 1: CAATCTGAATTCCGGTCTCCC
DNA 2: TGGTGGCTACGACGGGATT
B25: GUACAUG (DNA:RNA)
RNA: B1 RNA with A26U, U28C, C29A, U31G
DNA 1: CAATCTGAATTCCGGTCTCCC
DNA 2: TGGTGGCTACGACGGGATT
B26: CCCUCUU (DNA:RNA)
RNA: B1 RNA with G25C, A26C, A27C
DNA 1: CAATCTGAATTCCGGTCTCCC
DNA 2: TGGTGGCTACGACGGGATT
B27: AAUGAUC (DNA:RNA)
RNA: B10 RNA with G26A, C27U, A28G, A30U, A31C
DNA 1: CAATCTGAATTCCGGTCTCCC
DNA 2: TGGTGGCTACGACGGGATT
B28: UUUACCC (DNA:RNA)
RNA: B10 RNA with A25U, G26U, C27U, A29C, A30C, A31C
DNA 1: CAATCTGAATTCCGGTCTCCC
DNA 2: TGGTGGCTACGACGGGATT
B29: CUUGCCA (DNA:RNA)
RNA: B10 RNA with A25C, G26U, C27U, A28G, A29C, A30C
DNA 1: CAATCTGAATTCCGGTCTCCC
DNA 2: TGGTGGCTACGACGGGATT
B30: GAACGGU (DNA:RNA)
RNA: B1 RNA with U28C, C29G, U30G
DNA 1: CAATCTGAATTCCGGTCTCCC
DNA 2: TGGTGGCTACGACGGGATT
B31: ACAGCAU (DNA:RNA)
RNA: B1 RNA with G25A, A26C, U28G, U30A
DNA 1: CAATCTGAATTCCGGTCTCCC
DNA 2: TGGTGGCTACGACGGGATT

The binders below were run against T1, RBFOX1 RRM (assay: EMSA; HiTS-Eq, 1 nM pool, 10 min; buffer printed only for the single-RNA assays: 10 mM Tris pH 7.5, 150 mM NaCl, 3.4 mM EDTA, 0.001% NP-40, 30 C). Details: tags: His6 N-terminal (pET28a); label: 5' 32P.
In short: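 These values rest on relative association constants, computed from read-count changes of each RNA species versus the control reaction and normalised to the cognate motif. Reads came from free RNA recovered by 8% native PAGE after purified RbFox RRM (wild type or mutant) at increasing concentrations was equilibrated for 10 min in 50 µL with 1 nM of a 5′-radiolabelled pool with 7 randomized nucleotides and DNA-annealed flanks.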
With B1 the binding signal was 0.0115 KA relative to UGCAUGU.
In the case of B2, the binding signal is reported as 0.000958 KA relative to UGCAUGU.
In the case of B3, the binding signal is reported as 0.00703 KA relative to UGCAUGU.
With B4 the binding signal was 0.021 KA relative to UGCAUGU.
B5 was tested, and the binding signal was 0.00321 KA relative to UGCAUGU.
B6 was tested, and the binding signal was 0.0209 KA relative to UGCAUGU.
With B7 the binding signal was 0.0116 KA relative to UGCAUGU.
B8 was tested, and the binding signal was 0.00278 KA relative to UGCAUGU.
In the case of B9, the binding signal is reported as 0.0117 KA relative to UGCAUGU.
B10 was tested, and the binding signal was 0.00164 KA relative to UGCAUGU.
For B11, the binding signal was 0.00178 KA relative to UGCAUGU.
In the case of B12, the binding signal is reported as 0.0124 KA relative to UGCAUGU.
With B13 the binding signal was 0.0155 KA relative to UGCAUGU.
With B14 the binding signal was 0.00233 KA relative to UGCAUGU.
B15 was tested, and the binding signal was 0.00499 KA relative to UGCAUGU.
For B16, the binding signal was 0.0124 KA relative to UGCAUGU.
With B17 the binding signal was 0.00959 KA relative to UGCAUGU.
B18 was tested, and the binding signal was 0.0163 KA relative to UGCAUGU.
For B19, the binding signal was 0.0107 KA relative to UGCAUGU.
In the case of B20, the binding signal is reported as 0.00417 KA relative to UGCAUGU.
In the case of B21, the binding signal is reported as 0.00935 KA relative to UGCAUGU.
For B22, the binding signal was 0.00728 KA relative to UGCAUGU.
B23 was tested, and the binding signal was 0.00456 KA relative to UGCAUGU.
With B24 the binding signal was 0.00575 KA relative to UGCAUGU.
For B25, the binding signal was 0.00882 KA relative to UGCAUGU.
B26 was tested, and the binding signal was 0.00358 KA relative to UGCAUGU.
In the case of B27, the binding signal is reported as 0.00553 KA relative to UGCAUGU.
In the case of B28, the binding signal is reported as 0.00298 KA relative to UGCAUGU.
In the case of B29, the binding signal is reported as 0.0089 KA relative to UGCAUGU.
B30 was tested, and the binding signal was 0.0147 KA relative to UGCAUGU.
In the case of B31, the binding signal is reported as 0.00434 KA relative to UGCAUGU.

From article PMC9911399, “Two distinct binding modes provide the RNA-binding protein RbFox with extraordinary sequence specificity”
